Assay results taken from publication PMC12820563, “FoxP3 forms a head-to-head dimer in vivo and stabilizes its multimerization on adjacent microsatellites”.
The other results are listed elsewhere or left out.

The sequences below were run against T1, MBP-FoxP1dN (Mus musculus, UniProt P58462 326-579) (assay: PD-seq (MBP pull-down with sequencing); 20 mM Tris-HCl pH 7.5, 100 mM NaCl, 1.5 mM MgCl2, 0.4 uM protein, 0.1 uM dsDNA library, 30 min, room temperature, amylose pull-down; high values mean tight binding). Conditions: protein: recombinant; tags: His6-MBP; chain copies: 2; dsDNA, one strand shown.
T1 sequence: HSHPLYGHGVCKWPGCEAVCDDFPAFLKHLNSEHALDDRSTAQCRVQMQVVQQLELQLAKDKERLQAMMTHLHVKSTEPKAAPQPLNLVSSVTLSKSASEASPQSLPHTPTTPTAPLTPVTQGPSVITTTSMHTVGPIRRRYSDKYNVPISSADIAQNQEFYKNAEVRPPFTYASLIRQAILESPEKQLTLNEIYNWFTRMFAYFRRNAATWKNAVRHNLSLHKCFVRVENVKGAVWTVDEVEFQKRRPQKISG
Summary of the method: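 Mouse FoxP3 or FoxP1 fragment lacking the N-terminus, His6-MBP-tagged and expressed in E. coli, was incubated at 0.4 µM with 0.1 µM Klenow-filled degenerate double-stranded DNA library for 30 min at room temperature in Tris pH 7.5 buffer with NaCl and MgCl2. Complexes captured on amylose resin were washed three times and their DNA sequenced on Illumina. Binding is reads-per-million enrichment of pull-down over input, replicates pooled.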

Sequence	binding signal
GATGATTGTTCTCCCAGCTGATGAATTGATATAGTCGAGTAAACAAATTTTCCTAATCTTTCTGTTCAAGCGCCATCTAC	1.04 RPM ratio (pull-down/input)
GATGATTGTTCTCCCAGCTGATGAATTCCACAGTTCGAGTAAACAAATTTTCCTAATCTTTCTGTTCAAGCGCCATCTAC	0.831 RPM ratio (pull-down/input)
GATGATTGTTCTCCCAGCTGATGAATTGACAGATTCGAGTAAACAAATTTTCCTAATCTTTCTGTTCAAGCGCCATCTAC	1.28 RPM ratio (pull-down/input)
GATGATTGTTCTCCCAGCTGATGAATTTGACCCCTCGAGTAAACAAATTTTCCTAATCTTTCTGTTCAAGCGCCATCTAC	0.843 RPM ratio (pull-down/input)
GATGATTGTTCTCCCAGCTGATGAATTTTGTATTTCGAGTAAACAAATTTTCCTAATCTTTCTGTTCAAGCGCCATCTAC	1.42 RPM ratio (pull-down/input)
GATGATTGTTCTCCCAGCTGATGAATTATTTACATCGAGTAAACAAATTTTCCTAATCTTTCTGTTCAAGCGCCATCTAC	2.34 RPM ratio (pull-down/input)
GATGATTGTTCTCCCAGCTGATGAATTTAGCCTCTCGAGTAAACAAATTTTCCTAATCTTTCTGTTCAAGCGCCATCTAC	0.995 RPM ratio (pull-down/input)
GATGATTGTTCTCCCAGCTGATGAATTTCAATTTTCGAGTAAACAAATTTTCCTAATCTTTCTGTTCAAGCGCCATCTAC	1.11 RPM ratio (pull-down/input)
GATGATTGTTCTCCCAGCTGATGAATTGTTGGCGTCGAGTAAACAAATTTTCCTAATCTTTCTGTTCAAGCGCCATCTAC	1.35 RPM ratio (pull-down/input)
GATGATTGTTCTCCCAGCTGATGAATTTCGGTATTCGAGTAAACAAATTTTCCTAATCTTTCTGTTCAAGCGCCATCTAC	0.97 RPM ratio (pull-down/input)
GATGATTGTTCTCCCAGCTGATGAATTCGCGTAATCGAGTAAACAAATTTTCCTAATCTTTCTGTTCAAGCGCCATCTAC	1.28 RPM ratio (pull-down/input)
GATGATTGTTCTCCCAGCTGATGAATTTAGCGGATCGAGTAAACAAATTTTCCTAATCTTTCTGTTCAAGCGCCATCTAC	0.899 RPM ratio (pull-down/input)
GATGATTGTTCTCCCAGCTGATGAATTCGAGATTTCGAGTAAACAAATTTTCCTAATCTTTCTGTTCAAGCGCCATCTAC	0.767 RPM ratio (pull-down/input)
GATGATTGTTCTCCCAGCTGATGAATTTACGAACTCGAGTAAACAAATTTTCCTAATCTTTCTGTTCAAGCGCCATCTAC	1.15 RPM ratio (pull-down/input)
GATGATTGTTCTCCCAGCTGATGAATTTGCATAATCGAGTAAACAAATTTTCCTAATCTTTCTGTTCAAGCGCCATCTAC	1.4 RPM ratio (pull-down/input)
GATGATTGTTCTCCCAGCTGATGAATTAGCCGTGTCGAGTAAACAAATTTTCCTAATCTTTCTGTTCAAGCGCCATCTAC	0.87 RPM ratio (pull-down/input)

Sequence	binding signal
GATGATTGTTCTCCCAGCTGATGAATTCACGACATCGAGTAAACAAATTTTCCTAATCTTTCTGTTCAAGCGCCATCTAC	1 RPM ratio (pull-down/input)
GATGATTGTTCTCCCAGCTGATGAATTAAAGAAATCGAGTAAACAAATTTTCCTAATCTTTCTGTTCAAGCGCCATCTAC	1.14 RPM ratio (pull-down/input)
GATGATTGTTCTCCCAGCTGATGAATTGCGCCATTCGAGTAAACAAATTTTCCTAATCTTTCTGTTCAAGCGCCATCTAC	1.14 RPM ratio (pull-down/input)
GATGATTGTTCTCCCAGCTGATGAATTCAACTGCTCGAGTAAACAAATTTTCCTAATCTTTCTGTTCAAGCGCCATCTAC	0.801 RPM ratio (pull-down/input)
GATGATTGTTCTCCCAGCTGATGAATTCCGGAGATCGAGTAAACAAATTTTCCTAATCTTTCTGTTCAAGCGCCATCTAC	0.814 RPM ratio (pull-down/input)
GATGATTGTTCTCCCAGCTGATGAATTACCGACCTCGAGTAAACAAATTTTCCTAATCTTTCTGTTCAAGCGCCATCTAC	0.893 RPM ratio (pull-down/input)
GATGATTGTTCTCCCAGCTGATGAATTTTTAAAATCGAGTAAACAAATTTTCCTAATCTTTCTGTTCAAGCGCCATCTAC	1.13 RPM ratio (pull-down/input)
GATGATTGTTCTCCCAGCTGATGAATTTCTGCTGTCGAGTAAACAAATTTTCCTAATCTTTCTGTTCAAGCGCCATCTAC	1.2 RPM ratio (pull-down/input)
GATGATTGTTCTCCCAGCTGATGAATTAAGTTGTTCGAGTAAACAAATTTTCCTAATCTTTCTGTTCAAGCGCCATCTAC	1.42 RPM ratio (pull-down/input)
GATGATTGTTCTCCCAGCTGATGAATTACGAGTCTCGAGTAAACAAATTTTCCTAATCTTTCTGTTCAAGCGCCATCTAC	0.992 RPM ratio (pull-down/input)
GATGATTGTTCTCCCAGCTGATGAATTACGCCGATCGAGTAAACAAATTTTCCTAATCTTTCTGTTCAAGCGCCATCTAC	1.03 RPM ratio (pull-down/input)
GATGATTGTTCTCCCAGCTGATGAATTTACATTGTCGAGTAAACAAATTTTCCTAATCTTTCTGTTCAAGCGCCATCTAC	1.47 RPM ratio (pull-down/input)
GATGATTGTTCTCCCAGCTGATGAATTCCACCGCTCGAGTAAACAAATTTTCCTAATCTTTCTGTTCAAGCGCCATCTAC	0.73 RPM ratio (pull-down/input)
GATGATTGTTCTCCCAGCTGATGAATTAGGAACATCGAGTAAACAAATTTTCCTAATCTTTCTGTTCAAGCGCCATCTAC	1.04 RPM ratio (pull-down/input)
GATGATTGTTCTCCCAGCTGATGAATTATTTGAGTCGAGTAAACAAATTTTCCTAATCTTTCTGTTCAAGCGCCATCTAC	1.06 RPM ratio (pull-down/input)
GATGATTGTTCTCCCAGCTGATGAATTCTATATCTCGAGTAAACAAATTTTCCTAATCTTTCTGTTCAAGCGCCATCTAC	0.869 RPM ratio (pull-down/input)
